In the supplement of paper PMC11417369:
This is one part of the list.

These sequences were tested on PfSIP2 AP2 domain 1 (GST-tagged) (assay: gcPBM binding intensity (ln(normalized median fluorescence intensity)); higher = stronger DNA binding).
Summary of the method: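 An Agilent 4 × 180k array of primer-extended double-stranded 36-bp intergenic genomic probes, with negative controls, was incubated for 1 h with GST-tagged P. falciparum DNA-binding domains expressed in E. coli. Alexa488 anti-GST antibody detected bound protein, scanned at 488 nm. Binding intensity is the highest Masliner-normalised natural-log median intensity across replicate spots of either probe orientation.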

Sequence	gcPBM binding intensity (ln)
TTGATATGTACAGGCACACATAAATTTCACAAATAT [CACACA_site3999]	7.04
CTTTAGTTTTTAATGTGTACTGAATTTGAATAGTAG [XGTACX_site7920]	7.15
CGTATTATTTTATAAACACACAAGGGGGCATGTATA [CACACA_site6489]	8.48
ATATAATTAAAAACATGTACATATATATATATATAT [XGTACX_site2882]	9.07
CATAAATGTATATAAACATGCAAGGACAGACTTTTA [TGCATGCA_site900]	6.86
TACATACAGATATATACACACATATATAATATATAT [CACACA_site4376]	7.22
TACATACCTATATACACATGCATATTTACATATATT [TGCATGCA_site206]	7.35
AAAATTAAATTATAAGCACACACATATATATATATA [CACACA_site9105]	9.32
GTAAAAATACAAAAGGTGCTCAAACAATATAATACA	8.65
GAATATTAAACAAACACACACACATATATTTATATA [CACACA_site7563]	7.05
AATGGATTGATAAGTGGTACACACATATATATTATA [XGTACX_site6086]	6.98
TATATAATATATATGACACACATATTTATATAAATA [CACACA_site4054]	7.12
TTTATATTATTTTAAACATGCACAAGTATAATTTAT [TGCATGCA_site233]	7.84
TAAATTTAGAAACACACACACATATATATATATATA [CACACA_site847]	9.59
TGTGGGAATAACCACACACACACACGCATATAAATA [CACACA_site7634]	6.95
TGAACAGACGAGCACACACACACATATATATATATA [CACACA_site1019]	9.49
TTTTCATATGAACAATGTACACATCGTATAATTCTG [XGTACX_site4756]	6.93
CTCATAAAAATAACGTTAACATAAATTTATTGTGAT [XGTACX_negctrl_site169]	7.04
TATATGTCAATATCTACACACATATATATAATTATT [CACACA_site3156]	6.74
AATATAAAACATATCACACATATGTATTTATGTATA [CACACA_site5763]	6.88
ATACATATTAAAGGATGTACACTTATATTTTTTAGA [XGTACX_site5406]	6.92
AACATACACATATACACACACACATATATACATATA [CACACA_site1093]	7.37
AAAAAAAAAAAAACATGTACATAAATGTAAAAAAGT [XGTACX_site8158]	7.35

Sequence	gcPBM binding intensity (ln)
ACATATAAAATGTATACACACAAATATTACAGAGAT [CACACA_site4920]	7.07
GCTTTTGAAAATATACACATGTTAGGAATACAGGGG [TGCATGCA_negctrl_site480]	7.57
TATAATAACAATTTAGTGCATATAATAATATTTTAT	8.07
ATTTTTTTTCTTTTTTTTTTACATTTTTTTCTTTTT [CACACA_negctrl_site1289]	6.75
AATTAAGTTAAACATTAAAAAAAACAAAAAATTAAA [CACACA_negctrl_site1333]	6.73
ATATATACATATATATGTACGTATATTTTTATTTCT [XGTACX_site6198]	7.48
TATAAACCCACCTACACACACAACGTAAATGCATTG [CACACA_site2238]	7.01
ATTTAACAACTTCAAACACACAATATAGATTTATAT [CACACA_site7067]	7.07
AATAATTAAAATTATCTACACACCTTTATAAATATA [CACACA_site9300]	6.77
AATTTAAACAAGGATCCACACACCCCAAAAAAAAAA [CACACA_site8125]	7.2
GCCATTAATTTATACACACACATTATGATTTTTTAT [CACACA_site754]	7.33
CCTGAACACATACATACACACACACTAATAAAAAAA [CACACA_site8023]	7.51
ATGCATATGTTTATTGCACACACCAAAAAGAAAACA [CACACA_site403]	7.43
TACAAACTATGATGCACACATATATATATGTATACA [CACACA_site1226]	7.31
AAAATGTGCCCACGCGTACACACAAAAAAAGAAAAA [CACACA_site2004]	7.9
TTATATTATGCTTGAATGCACTTTGAAGCACAATCT [GTGCAC_site9789]	9.16
AATATATAATTTTATAGTACATAATAAAAGAACAGG [XGTACX_site724]	7.65
TTTAATTTTTTTTAAACACACACATTACATTCAAAA [CACACA_site7926]	6.93
TATTCAACATAATATGCACACAAAAATTATGGAACG [CACACA_site8660]	7.7
ATCACATAAAATATGAATATATATTTTATATATATA [CACACA_negctrl_site340]	7.58
TTAAAAAAAAAAAGGTGTACTATAATTTAATATCAC [XGTACX_site6316]	6.95
TATATTTACGTATGTCGAACGTTATTTTGAACAACC [CACACA_negctrl_site1261]	7.11
CGTTTATATAGTGATGCATGCATTGTTAACATGGTT [TGCATGCA_site418]	6.94

Sequence	gcPBM binding intensity (ln)
TTTATACACAAAAAATGTACATATATATAATGAATT [XGTACX_site1195]	7.4
TGTATGTCTTTATTTTGTACACAATATAAAAAATTA [XGTACX_site5441]	7.55
CGCACAAAAATATACACACACACATATATATTTATT [CACACA_site3645]	7.21
TAATAATAAATTGGTTGTACAACCTTATACAGAATA [XGTACX_site2592]	7.31
ACACAAAAAATAAAAATATATATATATTATATATAT [CACACA_negctrl_site1489]	7.87
TAAAAAAATATATATACATGCATAGAAAAAAAAAAA [TGCATGCA_site552]	6.96
TTTTTTTATTAAAAATGTACAAAAATGAAAAAATAA [XGTACX_site8279]	7.08
CATATAATTTTATGGGTGCATTTTTTTGTAAGACCA	11.1
TTTTAAACAAAAATTTGTACACAATAATTAAATATA [XGTACX_site6755]	7.22
ATTTAATTTTTTTTTTTTTTTTTTCAATCCCCTTTT [CACACA_negctrl_site1013]	6.74
CATTTTAAAGAAAATACACACAAAAATAAATATATA [CACACA_site1395]	6.88
TATACATATGAAAATACACACATACATACATATATA [CACACA_site8484]	6.95
ATTATACATATATAAGTGCAATAATGTTTTTTCCTT	7.51
AAGGTATATATAACTACACACTTATATATAATCTAA [CACACA_site92]	6.91
TGTAGTCTGGAGAAAAGTACATAGTATCTGGTAACC [XGTACX_site2025]	7.01
TAATAAAATATGTACACACATACACCCATATATATA [CACACA_site1220]	7.36
AACAGACAGAAACACACACACATATATATATATATA [CACACA_site3394]	9.24
ATTTTCCAAAATAATTGTACAGGAAAGAAATAATTA [XGTACX_site7424]	6.92
ATACATATTTTACATTCACACAACAAATTTATATTT [CACACA_site4700]	7.43
AGGAACAAAATATACTGTACTTTATTATTTTCAAAA [XGTACX_site4421]	6.98
ATATATTTTAATTGATGTACTTTTTTATGTTAATGA [XGTACX_site4316]	7.03
TTACTTTTAACAAATGTGCGCAGTTATCACACAGAC	7.61
TATATTTTGTTCTGTTGTACTAAAAAAATCTTTATA [XGTACX_site8372]	7.2

Sequence	gcPBM binding intensity (ln)
ACAAAACAAAAAAACTCACACATATACGGCATGTCA [CACACA_site5608]	6.92
ATTTATTTATTTATATGTACATATTTAAAGAGTTCA [XGTACX_site7631]	7.02
ATATATATATATATATGTACTAAGAATTCTTTAAAA [XGTACX_site8476]	9.68
ACACATAATATGTGTAGTACTTTTTCTTTAACATTA [XGTACX_site1436]	7.1
AACAGTAACATTGAATGTACTTAATTTTAAGAAAAT [XGTACX_site2971]	7.01
TATAAATATAAATATACACACATATATTTATTTATA [CACACA_site6890]	6.88
TTAAAATAAAGAAAATGTACATAAATTAAAATAAAG [XGTACX_site2281]	7.34
TTTTTTTTTTTTTTTATAGTACATTACCAAAAAAAA [CACACA_negctrl_site1197]	6.98
ATTTATTGACTATTTACACACATATTTATTATAATA [CACACA_site1624]	7.14
TGGGTAAACAGACACACACACATATAGATTTATATA [CACACA_site7026]	6.95
AAATTATATGAACATTGTACTTTATATATGTAAGAA [XGTACX_site1611]	7.29
CTTCCAATAAAAAATGCACACATTGAAAATATTGAA [CACACA_site2688]	7.37
ACACACATATATACATGTACATATATATATATATAT [XGTACX_site451]	9.41
TATTTTGTTCTTTCCACACACAAATACAGATATTGT [CACACA_site6097]	7.18
TCTTATCCATATATTACACACTATAAATAGAAATTA [CACACA_site6274]	7.38
ATTTGTATATATTAATGTACACACATGCGTATGTTC [XGTACX_site7579]	6.93
TTTATTTTATTTTCATGTACAAAAGGGGAATAATAA [XGTACX_site2704]	7.36
GATTTATACAAATATGTACACACTAAATATATATTA [CACACA_site455]	7.22
TATTTATCTTTACGCACACACTTGCATGTACAAAAG [CACACA_site4753]	7.45
ATATGTATGTATTTATTATTGTGCATTGTATTTATA [CACACA_negctrl_site664]	7.44
